Molecules are shown by their SMILES. About 550 (1.1%) of roughly 48,000 compounds were called active. Roughly 4% stayed inconclusive and do not appear here. Cut-off read from the data, not from the text of the source: active = potency below about 15 µM; inconclusive = mostly about 16 µM to 33 µM; inactive = weaker than that. The list shows a part of the results.
Potency is the fitted concentration of half-maximal effect.

The target in the assay is Lysosomal acid glucosylceramidase (Homo sapiens) (UniProt P04062). Kind of assay: Glucocerebrosidase.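 Note: the screen sought inhibitors.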 The note with it: purified enzyme, resorufin glucoside fluorescence (screen aimed at inhibitors), 20 min; series mostly up to 77 µM. The gist of the method: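 Wild-type enzyme at 0.2 nM final in 50mM citric acid/KH2PO4, 10mM sodium taurocholate, 0.01% tween-20, pH 5.9, with resorufin beta-D-glucopyranoside at 30 uM final. Compounds titrated, 20 min at RT, red fluorescence read; AC50 from titration.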
Chain of UniProt P04062 (P04062 whole entry, looked up): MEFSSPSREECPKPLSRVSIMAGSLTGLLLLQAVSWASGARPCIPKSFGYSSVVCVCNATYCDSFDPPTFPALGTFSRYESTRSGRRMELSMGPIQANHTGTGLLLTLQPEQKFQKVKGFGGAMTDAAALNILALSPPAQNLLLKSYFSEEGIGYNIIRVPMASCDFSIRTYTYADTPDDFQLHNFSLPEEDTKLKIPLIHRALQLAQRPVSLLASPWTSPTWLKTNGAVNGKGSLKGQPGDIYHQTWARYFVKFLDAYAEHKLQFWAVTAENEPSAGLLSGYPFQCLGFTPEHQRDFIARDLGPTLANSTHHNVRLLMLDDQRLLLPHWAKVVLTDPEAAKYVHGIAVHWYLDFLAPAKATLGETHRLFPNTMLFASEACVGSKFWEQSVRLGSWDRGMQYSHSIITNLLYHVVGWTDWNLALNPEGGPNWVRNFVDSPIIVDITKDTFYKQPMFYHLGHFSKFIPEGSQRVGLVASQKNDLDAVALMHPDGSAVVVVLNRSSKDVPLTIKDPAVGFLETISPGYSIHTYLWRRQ
Take `O=C1Nc2ccccc2C12OC1CCCCC1O2` (centres undefined): the Potency was inactive: > 76.9 µM.

Regarding `Cc1ccc(-c2c3c(=O)n(C)c(=O)n(C)c3c3nnc4ccccc4n23)cc1`, the Potency is inactive: > 76.9 µM.

For the molecule `O=C(Nc1cccc(NC(=O)c2ccc(Br)o2)n1)c1ccc(Br)o1`, the Potency is inactive: > 76.9 µM.

In the case of `CCc1nnc(NC(=O)C(NS(=O)(=O)c2ccc3c(c2)OCCO3)C(C)C)s1` (centres undefined), the Potency is inactive: > 76.9 µM.

As for `O=C(CCS(=O)(=O)c1cccc2nsnc12)N1CC(=O)N(CCc2ccccc2)C(=O)C1`, the Potency was inactive: > 76.9 µM.

With `O=S1(=O)N=C(Nc2nc3c(s2)CCCC3)c2ccccc21`, the Potency was inactive: > 76.9 µM.

As to `CCOC(=O)c1sc(NC(=O)CSc2nnc(Cc3ccccc3)o2)c(C#N)c1C`, the Potency was inactive: > 76.9 µM.

Consider `CC1Cc2cc(/C(O)=C3/C(=O)C(=O)N(CC4CCCO4)C3c3ccco3)ccc2O1` (centres undefined), for which the Potency is inactive: > 76.9 µM.

As for `CCC(=O)Nc1nc2ccc(NC(C)=O)cc2s1`, the Potency is inactive: > 76.9 µM.

Regarding `COc1cccc(C2CC(c3ccccc3Cl)Nc3ncnn32)c1` (centres undefined), the Potency entry is “inactive”.

Consider `COc1cc(C)nc(N2CCCC(C(=O)NC3CCC(C)CC3)C2)n1` (centres undefined), for which the Potency was inactive: > 76.9 µM.

On to `O=C(C1CCN(S(=O)(=O)c2cccc3cccnc23)CC1)N1CCN(c2ccccn2)CC1`, for which the Potency is inactive: > 76.9 µM.

On to `CC(C)C(=O)Nc1ccc(C(=O)N2CCN(C(=O)c3ccco3)CC2)cc1`, for which the Potency was inactive: > 76.9 µM.

As to `COCCN1Cc2cccc(C(=O)Nc3ccc(C)c(C)c3)c2C1=O`, the Potency was inactive: > 76.9 µM.

`O=C(CSc1nnc(-c2ccc(Cl)s2)o1)N1CCc2ccccc21`: the Potency was inactive: > 76.9 µM.

Take `COc1cccc(-c2cc(C(=O)Nc3cc(C)on3)no2)c1`: the Potency was inactive: > 76.9 µM.

For `CCOC(=O)CSc1nnc(CNC(=O)c2ccc(OC)cc2)n1Cc1ccccc1`, the Potency is inactive: > 76.9 µM.

On to `Cc1[nH]n(C(N)=S)c(=O)c1C(c1ccccc1)C(C#N)C#N` (centres undefined), for which the Potency is inactive: > 76.9 µM.

Regarding `CC(C)Cn1c(SCc2nnc(-c3cccs3)o2)nc(O)cc1=O`, the Potency is inactive: > 76.9 µM.

On to `Cc1nc2oc(C(=O)c3ccccc3)c(N)c2c2c1COC(C)(C)C2`, for which the Potency is inactive: > 76.9 µM.

`COC(=O)c1ccc(COc2cccc(OC)c2)o1`: the Potency is inactive: > 76.9 µM.

For the molecule `Cc1ccccc1OCCn1nc(C(=O)O)c2ccccc2c1=O`, the Potency was inactive: > 76.9 µM.

As to `CC(C)CN(CC(C)C)c1nc(N)c(C#N)c(CC#N)c1C#N`, the Potency entry is “inactive”.

`CCCc1[nH]nc2c1C(c1cn[nH]c1-c1ccc(F)cc1)C(C#N)=C(N)O2` (centres undefined): the Potency was inactive: > 76.9 µM.

In the case of `C1=Nc2c(NCc3ccccc3)ncnc2Oc2ccccc21`, the Potency is inactive: > 76.9 µM.

In the case of `CC1(C(=O)O)Sc2[nH]c(=O)sc2C2c3ccccc3OC(=O)C21` (centres undefined), the Potency is inactive: > 76.9 µM.

As to `CC12CCC(C(=O)NCc3ccc4c(c3)OCO4)(OC1=O)C2(C)C` (centres undefined), the Potency is inactive: > 76.9 µM.

Regarding `COCCc1nnc(NC(=O)Cc2ccccc2)s1`, the Potency was inactive: > 76.9 µM.

On to `CS(=O)(=O)Nc1ccc(C(=O)N2CCCCC2)cc1`, for which the Potency was inactive: > 76.9 µM.

As for `Cc1cc(C)cc(OCc2ccc(C(=O)O)o2)c1`, the Potency is inactive: > 76.9 µM.

For the molecule `Cc1ccc(Cn2c(=O)cc(C(=O)O)c3ccccc32)cc1`, the Potency was inactive: > 76.9 µM.

For the molecule `Cn1c(=O)cc(SCC(=O)N2CCN(C(=O)c3ccco3)CC2)c2ccccc21`, the Potency is inactive: > 76.9 µM.

For the molecule `C(=N\n1cnnc1)/c1cccc2ccccc12`, the Potency was active: 14.3 µM.

Turning to `O=C(CCCc1nc(-c2ccccc2)no1)N1CCOCC1`, the Potency was inactive: > 76.9 µM.

Turning to `CCOc1ccc(C2NC(=O)c3ccccc3O2)cc1` (centres undefined), the Potency was inactive: > 76.9 µM.

Take `CCCCCCc1c(O)c2ccccc2[nH]c1=O`: the Potency is inactive: > 76.9 µM.

As for `COc1cc(-c2noc(CCCC(=O)NCc3ccco3)n2)cc(OC)c1OC`, the Potency is inactive: > 76.9 µM.

`Cc1ccc(OCc2nn3c(-c4n[nH]c5c4CCC5)nnc3s2)cc1`: the Potency was inactive: > 76.9 µM.

`O=c1cc(-c2ccccc2)[nH]n1-c1nc2ccccc2s1`: the Potency was inactive: > 76.9 µM.

In the case of `COc1ccccc1OCc1nc(C#N)c(N2CCC(C(N)=O)CC2)o1`, the Potency was inactive: > 76.9 µM.

On to `CC(=O)Oc1cc2c(C(C)=O)coc2c2ccccc12`, for which the Potency was inactive: > 76.9 µM.

Take `Cc1nc2[nH]onc2c2nccc(=O)c12`: the Potency was inactive: > 76.9 µM.

For `O=C(c1cc2ccccc2oc1=O)N(Cc1ccco1)CC1CCCO1` (centres undefined), the Potency was inactive: > 76.9 µM.

Take `O=C(NCc1cccc(C(F)(F)F)c1)C1CCCN(c2ncccn2)C1` (centres undefined): the Potency was inactive: > 76.9 µM.

Consider `CN(C)S(=O)(=O)N1CCN(CC(O)COc2ccc(C(=O)c3ccccc3)cc2)CC1` (centres undefined), for which the Potency is inactive: > 76.9 µM.

Consider `COc1ccc(-c2nnc(SCc3ccccc3)n2N)cc1`, for which the Potency was inactive: > 76.9 µM.

Consider `CCCn1c2c(c(O)c(C(=O)Nc3ccc(C)cn3)c1=O)CCCC2`, for which the Potency is inactive: > 76.9 µM.

With `CCc1nnc(NC(=O)CN2C(=O)c3ccccc3C2=O)s1`, the Potency was inactive: > 76.9 µM.

For `CCOCCOC(=O)C1=C(C)N(C)C(=O)NC1c1ccccc1F` (centres undefined), the Potency was inactive: > 76.9 µM.

Regarding `COc1ccc(-c2cn[nH]c2N)c(OC)c1`, the Potency is inactive: > 76.9 µM.

Turning to `CCOc1ccc(-c2[nH]ncc2Oc2ccccc2OC)c(O)c1`, the Potency was inactive: > 76.9 µM.

In the case of `CC(=O)c1c(C)cc(C)c(CSc2nnc(-c3ccco3)o2)c1C`, the Potency is inactive: > 76.9 µM.

For the molecule `COc1ccccc1N(CN1C(=O)c2ccccc2C1=O)C(=O)c1cccnc1`, the Potency is inactive: > 76.9 µM.

`CCn1nnc(NC(=O)c2cccnc2)n1`: the Potency is inactive: > 76.9 µM.

Regarding `O=C(Nc1ccccc1C(=O)N1CCCC1)C1CCN(c2ncccn2)CC1`, the Potency was inactive: > 76.9 µM.

For the molecule `CCOC(=O)N1CCN(C(=O)c2ccc(N3CCCC3=O)cc2)CC1`, the Potency is inactive: > 76.9 µM.

Take `Cc1cnc(NC(=O)c2ccc(-c3nc4ccccc4s3)o2)s1`: the Potency was inactive: > 76.9 µM.

For the molecule `O=P(c1ccccc1)(c1ccccc1)C(O)c1ccncc1` (centres undefined), the Potency was inactive: > 76.9 µM.

In the case of `Cc1cc(C)nc(SCC(=O)Nn2cnnc2)n1`, the Potency was inactive: > 76.9 µM.

In the case of `CCOC(=O)c1oc2cccc(O)c2c1CN1CCOCC1`, the Potency was inactive: > 76.9 µM.

With `O=C(C1CC1)N1CCc2cc(Br)cc(S(=O)(=O)NCc3ccc4c(c3)OCO4)c21`, the Potency was inactive: > 76.9 µM.

`COC(=O)c1ccc(NC(=O)CSc2nnc(-c3ccncc3)n2C)cc1`: the Potency was inactive: > 76.9 µM.

In the case of `COc1ccccc1-c1cc(C(=O)NCc2ccc(Cl)cc2)no1`, the Potency was inactive: > 76.9 µM.

As to `CCNc1nc(NC(C)C)nc(N(C#N)Cc2ccccc2)n1`, the Potency was inactive: > 76.9 µM.

In the case of `COc1cccc(OC)c1OCCCc1c(C)n[nH]c1C`, the Potency was inactive: > 76.9 µM.

As for `O=C(Nn1c(-c2ccccc2)nc2ccccc2c1=O)c1ccco1`, the Potency result was “inactive”.

Turning to `O=C(Nc1nnc(COc2ccccc2)s1)c1ccco1`, the Potency was inactive: > 76.9 µM.

As for `CC1=C(C)CC(C(=O)c2ccccc2)C(C(=O)O)C1` (centres undefined), the Potency was inactive: > 76.9 µM.

For `Cc1cc(O)cc(O)c1C(=O)Cc1cscn1`, the Potency is inactive: > 76.9 µM.

On to `O=C(CSc1nncc2ccccc12)N1CCOCC1`, for which the Potency is inactive: > 76.9 µM.

In the case of `CN(C)c1ccc(-c2noc(-c3ccccc3O)n2)cc1`, the Potency is inactive: > 76.9 µM.

Take `CCOc1ccc(-n2c(-c3ccco3)n[nH]c2=S)cc1`: the Potency was inactive: > 76.9 µM.

Consider `O=C(NC1CCCC1)C1CCN(S(=O)(=O)c2cccc3cccnc23)CC1`, for which the Potency is inactive: > 76.9 µM.

Take `CCN(CC)C(=O)c1cc2c(=O)n3cccc(C)c3nc2n1C`: the Potency is inactive: > 76.9 µM.

As to `COc1ccc(NC(=O)C2CC(=O)NC(Nc3cccc(C)c3)=N2)cc1` (centres undefined), the Potency is inactive: > 76.9 µM.

With `Cc1ccc(Nc2nc3nonc3[nH]c2=O)cc1C`, the Potency was inactive: > 76.9 µM.

For the molecule `COc1cccc(N2C(=O)CC(N3CCN(S(=O)(=O)c4ccccc4)CC3)C2=O)c1` (centres undefined), the Potency is inactive: > 76.9 µM.

On to `COc1ccc(Cc2nc(-c3ccc(Cl)cc3)no2)cc1`, for which the Potency is inactive: > 76.9 µM.

As to `Cc1ccccc1CS(=O)(=O)Cc1ccc(C(=O)N2CCOCC2)o1`, the Potency is inactive: > 76.9 µM.

As for `CCC(Oc1ccccc1)C(=O)Nc1ccccn1` (centres undefined), the Potency was inactive: > 76.9 µM.

`COCCCNC(=O)C1CC(=O)N(C2CCCC2)C1` (centres undefined): the Potency was inactive: > 76.9 µM.

On to `COc1ccccc1N1CCN(c2nc3ccccc3nc2C(C#N)C(=O)OC(C)C)CC1` (centres undefined), for which the Potency is inactive: > 76.9 µM.

As to `CCOC(=O)CSc1nnc(CNc2cccc(Cl)c2)n1-c1ccccc1`, the Potency was inactive: > 76.9 µM.

For `Cc1nc(NCC2CCCO2)c2nnn(Cc3ccccc3)c2n1` (centres undefined), the Potency is inactive: > 76.9 µM.

For the molecule `O=C(O)CC(CP(=O)(c1ccccc1)c1ccccc1)C(=O)O` (centres undefined), the Potency was inactive: > 76.9 µM.

Turning to `Cc1csc(NC(=O)c2cccc(S(=O)(=O)N3CCCCC3)c2)n1`, the Potency is inactive: > 76.9 µM.

For `Cc1sc2ncnc(Sc3nnnn3-c3ccccc3)c2c1C`, the Potency is active: 9.19 µM.

Turning to `O=C(NCC12CC3CC(CC(C3)C1)C2)c1nc2ncccn2n1`, the Potency is inactive: > 76.9 µM.

In the case of `CC(=O)OCCNC(=O)c1cc2ccccc2oc1=O`, the Potency was inactive: > 76.9 µM.

As to `O=C(Nc1ccc2oc(-c3ccccc3)nc2c1)c1ccc2c(c1)OCCO2`, the Potency is inactive: > 76.9 µM.

On to `O=C(O)c1ccccc1OCCOc1ccccc1C(=O)O`, for which the Potency was inactive: > 76.9 µM.

`CC(C)(C)OC(=O)N1CCCC1C(=O)NCCc1ccccc1` (centres undefined): the Potency is inactive: > 76.9 µM.

In the case of `Cc1oc(-c2ccc(Cl)cc2)nc1CN1CCCC(C(=O)NCCCN2CCOCC2)C1` (centres undefined), the Potency is inactive: > 76.9 µM.

Turning to `Cc1cc(C(=O)N2CCN(c3ncccn3)CC2)cs1`, the Potency is inactive: > 76.9 µM.

The values are drawn from PubChem BioAssay AID360 (National Center for Advancing Translational Sciences (NCATS), 2006).
